Source: article PMC3846719
Results are given in words; binding and its absence hold for the method and conditions named. In cells and extracts the contact can be indirect. Some binding calls cover weakened binding; strength is not graded here. Blank lines part the entries; values can stand above or below the molecule they belong to.

Sequences of proteins named here, by UniProt entry; tags and fusion partners are left off. A change or cut given only in a name is not applied to a line headed by its entry. Residues count along the entry.
UniProt P27801: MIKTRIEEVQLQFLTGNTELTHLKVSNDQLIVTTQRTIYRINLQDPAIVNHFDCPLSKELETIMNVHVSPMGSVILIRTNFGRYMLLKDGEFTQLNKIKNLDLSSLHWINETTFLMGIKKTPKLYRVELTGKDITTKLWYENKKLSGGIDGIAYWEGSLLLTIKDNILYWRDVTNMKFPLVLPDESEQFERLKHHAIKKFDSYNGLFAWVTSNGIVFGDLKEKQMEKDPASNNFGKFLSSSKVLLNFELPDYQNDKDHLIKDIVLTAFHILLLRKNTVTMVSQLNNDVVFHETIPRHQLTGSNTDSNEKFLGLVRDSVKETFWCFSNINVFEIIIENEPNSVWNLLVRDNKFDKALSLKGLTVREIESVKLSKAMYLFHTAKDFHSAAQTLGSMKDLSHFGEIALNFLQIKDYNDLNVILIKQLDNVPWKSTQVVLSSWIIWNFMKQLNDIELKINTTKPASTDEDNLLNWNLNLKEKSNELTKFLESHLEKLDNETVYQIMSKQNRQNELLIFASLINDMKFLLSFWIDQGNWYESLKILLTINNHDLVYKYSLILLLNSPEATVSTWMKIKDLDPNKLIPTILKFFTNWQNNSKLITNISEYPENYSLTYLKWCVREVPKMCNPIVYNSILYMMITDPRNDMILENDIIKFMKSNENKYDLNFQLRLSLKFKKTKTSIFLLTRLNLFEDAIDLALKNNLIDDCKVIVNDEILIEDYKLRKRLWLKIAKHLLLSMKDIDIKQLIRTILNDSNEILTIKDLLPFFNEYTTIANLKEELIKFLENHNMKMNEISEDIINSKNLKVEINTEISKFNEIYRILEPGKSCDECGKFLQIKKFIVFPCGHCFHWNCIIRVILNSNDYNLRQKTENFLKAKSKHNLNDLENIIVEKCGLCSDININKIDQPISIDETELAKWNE
UniProt P12868: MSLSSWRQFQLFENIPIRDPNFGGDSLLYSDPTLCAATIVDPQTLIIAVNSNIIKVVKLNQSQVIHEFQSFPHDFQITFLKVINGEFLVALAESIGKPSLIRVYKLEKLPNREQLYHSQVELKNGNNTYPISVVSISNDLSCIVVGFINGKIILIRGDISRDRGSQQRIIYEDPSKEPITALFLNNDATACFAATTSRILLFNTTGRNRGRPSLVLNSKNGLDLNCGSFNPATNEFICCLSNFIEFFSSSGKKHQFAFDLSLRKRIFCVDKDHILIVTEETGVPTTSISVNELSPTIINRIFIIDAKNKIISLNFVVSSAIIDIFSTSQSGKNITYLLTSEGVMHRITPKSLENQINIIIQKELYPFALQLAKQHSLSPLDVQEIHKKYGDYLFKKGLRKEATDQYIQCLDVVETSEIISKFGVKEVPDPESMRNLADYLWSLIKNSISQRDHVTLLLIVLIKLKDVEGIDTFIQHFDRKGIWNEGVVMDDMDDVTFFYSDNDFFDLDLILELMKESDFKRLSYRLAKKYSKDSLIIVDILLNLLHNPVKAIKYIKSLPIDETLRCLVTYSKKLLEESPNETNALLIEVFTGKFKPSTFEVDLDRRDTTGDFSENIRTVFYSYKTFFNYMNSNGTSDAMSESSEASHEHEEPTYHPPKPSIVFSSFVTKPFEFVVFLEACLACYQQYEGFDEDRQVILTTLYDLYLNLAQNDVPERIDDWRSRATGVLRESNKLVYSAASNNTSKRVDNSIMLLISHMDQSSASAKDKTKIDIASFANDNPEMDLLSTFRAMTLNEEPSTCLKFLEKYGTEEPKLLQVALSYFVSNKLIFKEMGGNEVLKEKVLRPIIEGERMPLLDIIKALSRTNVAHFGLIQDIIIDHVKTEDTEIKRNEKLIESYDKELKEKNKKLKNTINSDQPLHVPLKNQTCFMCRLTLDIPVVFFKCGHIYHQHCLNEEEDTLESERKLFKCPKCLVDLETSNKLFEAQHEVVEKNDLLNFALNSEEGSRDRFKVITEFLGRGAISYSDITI
UniProt Q03308: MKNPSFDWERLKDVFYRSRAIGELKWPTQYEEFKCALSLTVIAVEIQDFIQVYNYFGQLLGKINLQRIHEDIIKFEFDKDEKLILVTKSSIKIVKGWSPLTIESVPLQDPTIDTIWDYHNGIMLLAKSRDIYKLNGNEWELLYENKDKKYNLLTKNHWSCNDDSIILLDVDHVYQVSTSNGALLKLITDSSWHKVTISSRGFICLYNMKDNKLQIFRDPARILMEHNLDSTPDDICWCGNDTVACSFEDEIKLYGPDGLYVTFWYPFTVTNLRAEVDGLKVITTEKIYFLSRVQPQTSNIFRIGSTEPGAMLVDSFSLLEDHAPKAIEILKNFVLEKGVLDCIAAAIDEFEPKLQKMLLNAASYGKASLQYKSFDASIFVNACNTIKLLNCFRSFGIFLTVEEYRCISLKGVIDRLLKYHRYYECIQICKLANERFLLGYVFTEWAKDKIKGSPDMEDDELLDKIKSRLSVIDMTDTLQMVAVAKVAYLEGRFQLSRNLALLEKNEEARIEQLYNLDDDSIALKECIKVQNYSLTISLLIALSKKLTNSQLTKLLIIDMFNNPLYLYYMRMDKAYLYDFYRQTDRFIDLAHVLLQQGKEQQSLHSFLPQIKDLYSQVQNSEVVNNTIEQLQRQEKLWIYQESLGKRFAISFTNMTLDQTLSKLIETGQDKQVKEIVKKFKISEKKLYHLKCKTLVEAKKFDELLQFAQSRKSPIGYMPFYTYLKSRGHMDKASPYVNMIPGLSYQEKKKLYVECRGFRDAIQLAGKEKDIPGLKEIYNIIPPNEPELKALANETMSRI
UniProt Q07468: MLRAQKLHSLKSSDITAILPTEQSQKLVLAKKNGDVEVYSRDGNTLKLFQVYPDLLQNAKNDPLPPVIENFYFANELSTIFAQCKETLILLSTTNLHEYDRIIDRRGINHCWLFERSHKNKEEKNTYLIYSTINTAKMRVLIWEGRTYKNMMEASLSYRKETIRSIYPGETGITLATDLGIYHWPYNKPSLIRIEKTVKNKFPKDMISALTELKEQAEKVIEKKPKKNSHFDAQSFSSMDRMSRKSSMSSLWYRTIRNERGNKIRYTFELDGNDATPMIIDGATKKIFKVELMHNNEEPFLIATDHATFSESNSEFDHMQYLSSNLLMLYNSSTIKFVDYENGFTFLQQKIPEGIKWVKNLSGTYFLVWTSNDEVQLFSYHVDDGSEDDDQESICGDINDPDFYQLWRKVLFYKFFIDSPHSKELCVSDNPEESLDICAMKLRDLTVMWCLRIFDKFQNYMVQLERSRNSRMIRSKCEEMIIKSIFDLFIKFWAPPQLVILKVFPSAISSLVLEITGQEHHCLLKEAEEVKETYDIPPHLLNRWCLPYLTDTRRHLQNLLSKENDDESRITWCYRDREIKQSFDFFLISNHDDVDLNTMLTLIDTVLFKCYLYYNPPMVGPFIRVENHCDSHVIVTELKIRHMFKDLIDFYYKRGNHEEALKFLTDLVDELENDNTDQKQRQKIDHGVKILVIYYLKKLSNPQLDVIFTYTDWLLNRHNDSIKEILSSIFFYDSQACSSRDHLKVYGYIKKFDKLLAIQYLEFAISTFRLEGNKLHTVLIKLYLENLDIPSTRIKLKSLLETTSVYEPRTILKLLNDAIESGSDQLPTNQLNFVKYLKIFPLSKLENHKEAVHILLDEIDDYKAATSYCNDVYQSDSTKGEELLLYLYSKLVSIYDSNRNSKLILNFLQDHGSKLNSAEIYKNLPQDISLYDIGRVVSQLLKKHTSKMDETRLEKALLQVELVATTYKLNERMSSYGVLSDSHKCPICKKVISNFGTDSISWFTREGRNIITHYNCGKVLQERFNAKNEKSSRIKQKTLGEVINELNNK
UniProt P20795, residues 440-691: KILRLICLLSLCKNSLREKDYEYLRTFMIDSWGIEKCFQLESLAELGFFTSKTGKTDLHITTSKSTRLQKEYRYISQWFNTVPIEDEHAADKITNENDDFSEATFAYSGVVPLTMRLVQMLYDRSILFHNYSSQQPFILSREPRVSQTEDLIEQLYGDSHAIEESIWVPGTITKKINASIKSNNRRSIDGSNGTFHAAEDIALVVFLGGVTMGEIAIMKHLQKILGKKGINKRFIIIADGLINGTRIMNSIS

Key:
Vps18 (S. cerevisiae) [1] = target: Vps18 (S. cerevisiae) (UniProt P27801); experiment: pull-down; three or four subunits co-translated in LTE (20 nM plasmid mixture in all), one of them GFP-tagged; subcomplex isolated on the anti-GFP matrix; SDS-PAGE, fluorescence scan
Vps11 (S. cerevisiae) [2] = target: Vps11 (S. cerevisiae) (UniProt P12868); experiment: pull-down; fragments of subunits from linear PCR templates co-translated in LTE with single EGFP-tagged bait subunits; precipitated on the anti-GFP matrix; SDS-PAGE, fluorescence scan
Vps18 (S. cerevisiae) [3] = target: Vps18 (S. cerevisiae) (UniProt P27801); experiment: as above
Vps11 (S. cerevisiae) [4] = target: Vps11 (S. cerevisiae) (UniProt P12868); experiment: pull-down; one EGFP-tagged bait subunit and one untagged prey subunit co-translated (10 nM plasmids, 100 µl LTE, 27 °C, 2.5 h) with BODIPY-Lys-tRNA; GFP-Cap (anti-GFP) beads 15 min; washed with 50 mM NaHPO4 pH 8, 300 mM NaCl, 0.1% Triton; SDS-PAGE, fluorescence scan
Vps16 (S. cerevisiae) = Vps16 (S. cerevisiae) (UniProt Q03308); experiment: pull-down; fragments of subunits from linear PCR templates co-translated in LTE with single EGFP-tagged bait subunits; precipitated on the anti-GFP matrix; SDS-PAGE, fluorescence scan

binding (Vps11 (S. cerevisiae) [2]): binds | binding (Vps18 (S. cerevisiae) [3]): binds
Molecule: Vps16(479-798) (from UniProt Q03308 479-798) (domain or fragment)

binding (Vps11 (S. cerevisiae) [4]): binds
Molecule: Vps18 (from UniProt P27801 1-918)

binding (Vps11 (S. cerevisiae) [2]): binds | binding (Vps16 (S. cerevisiae)): binds
Molecule: Vps18(733-918) (from UniProt P27801 733-918) (domain or fragment)

binding (Vps11 (S. cerevisiae) [2]): binds
Molecule: Vps39(618-1049) (from UniProt Q07468 618-1049) (domain or fragment)

Second part, the molecule before the results:

Molecule: Vps11 (from UniProt P12868 1-1029)
binding (Vps18 (S. cerevisiae) [1]): binds

Molecule: Vps33(440-691) (from UniProt P20795 440-691) (domain or fragment)
binding (Vps16 (S. cerevisiae)): binds

Molecule: Vps39 (from UniProt Q07468 1-1049)
binding (Vps11 (S. cerevisiae) [4]): binds

B1: Vps3 (protein, UniProt P23643 1-1011)
chain: MVKKKTNNDKGKEVKENEGKLDIDSESSPHERENDKKKTEDDSLRATESEETNTHNANPNETVRADKFSQEESRPIEDSPHTDKNTAQESCQPSSAEDNVINTDITSLNEKTSTNDEQEKGLPLKISEGPFTISTLLDNVPSDLIYTCCEAYENHIFLGTTTGDLLHYFELERGNYMLVSQTKFDAESNSKIDKILLLPKVEGALILCDNELVLFILPEFAPRPNTTRLKGISDVVICNFSRSSKAYRIYAFHAEGVRLLKISADSLVLTKAFNFKLIDKACAHEETLMVSKLNSYELINLKSSQVIPLFRISETDEDLEPIITSFNEQSEFLVCSGGGSYDSGAMALVVNHHGDIIKGTIVLKNYPRNVIVEFPYIIAESAFQSVDIYSALPSEKSQLLQSITTSGSDLKISKSDNVFTNTNNSEEFKEKIFNKLRLEPLTHSDNKFRIERERAFVEESYEEKTSLIVYNNLGIHLLVPTPMVLRFTSCEESEIDNIEDQLKKLAKKDLTKFEHIEAKYLMSLLLFLMTLHYDHIEDEVMKKWCDFSDKVDIRILFYMFGWKVYSEIWCFHGLINIVERLKSLKLTNKCENILKMLLMMKNELKKKNKTGLLTNDFDDIMKTIDITLFKLRLEKKETITVDMFERESYDEIIREINLHDDKLPRIELLIEIYKEKGEYLKALNLLREAGDYISLVSFIEENLKKLPEDYIKERIADDLLLTLKQGDENTEECAIKKVLKILDMACINKNDFLNKIPAEETSLKVSFIEQLGVQNSNDSKFLFNYYLAKLREIINQSNIWSILGDFIKEYKDDFAYDKTDITNFIHIKLKHSLQCENFSKYYEKCENLKSENEKDDEFINFTFDEISKIDKEHILTLLFFPNELTNWVSSEELLKIYLSFNDFRSVEKYIGKQNLVAVMKQYLDISSLNYSVELVTNLLQRNFELLDDTDIQLKILETIPSVFPVQTISELLLKVLIKYQEKKEESNLRKCLLKNQISISDELSRNFDSQG
modifications: BODIPY-labelled lysines (BODIPY-Lys-tRNA in the translation)
binding (Vps11 (S. cerevisiae) [4]): binds

B2: Vps8(950-1274) (domain or fragment, UniProt P39702 950-1274)
chain: TQQKYLDKLFSTPNINNKVDKRLRNLHIELNCKYKSKREMILWLNGTVLSNAESLQILDLLNQDSNFEAAAIIHERLESFNLAVRDLLSFIEQCLNEGKTNISTLLESLRRAFDDCNSAGTEKKSCWILLITFLITLYGKYPSHDERKDLCNKLLQEAFLGLVRSKSSSQKDSGGEFWEIMSSVLEHQDVILMKVQDLKQLLLNVFNTYKLERSLSELIQKIIEDSSQDLVQQYRKFLSEGWSIHTDDCEICGKKIWGAGLDPLLFLAWENVQRHQDMISVDLKTPLVIFKCHHGFHQTCLENLAQKPDEYSCLICQTESNPKIV
modifications: BODIPY-labelled lysines (BODIPY-Lys-tRNA in the translation)
binding (Vps16 (S. cerevisiae)): binds | binding (Vps18 (S. cerevisiae) [3]): binds
